Data published in EP4647071A1, “MITOCHONDRIAL COMPLEX I MODULATOR FOR USE IN THE TREATMENT OF ARTHRITIS” (Istesso Therapeutics Limited, priority 2024, dated 2025).
Marks after values point to notes of the source that are not given here.

System: patients with moderate to severe active rheumatoid arthritis
Assay: HAQ-disability index (HAQ-DI), clinical study
Conditions: for HAQ-DI CFB, Mean (SD): change from baseline; for % patients at week 12, CID: ≥-0.68 / % patients at week 12, MCID: ≥-0.22 / % patients at week 12, Normative (≤0.25) / % patients at week 12, Remission (≤0.5): HAQ-DI

Q: What does the source list for `C[C@]1(O)CC[C@H](NS(=O)(=O)c2ccc(-c3ccc(Cl)cc3C#N)cc2)CC1` [HMC-C-01-A]?
A: HAQ-DI CFB, Mean (SD) (5 mg once daily): -0.6 (0.5)*; HAQ-DI CFB, Mean (SD) (20 mg once daily): -0.4 (0.6); HAQ-DI CFB, Mean (SD) (40 mg once daily): -0.6 (0.7)^a; % patients at week 12, CID: ≥-0.68 (5 mg once daily): 33.4%; % patients at week 12, MCID: ≥-0.22 (5 mg once daily): 78.2%; % patients at week 12, Normative (≤0.25) (5 mg once daily): 14.3%; % patients at week 12, Remission (≤0.5) (5 mg once daily): 22.6%; % patients at week 12, CID: ≥-0.68 (20 mg once daily): 24.5%; % patients at week 12, MCID: ≥-0.22 (20 mg once daily): 59.2%; % patients at week 12, Normative (≤0.25) (20 mg once daily): 8.9%; % patients at week 12, Remission (≤0.5) (20 mg once daily): 14.5%; % patients at week 12, CID: ≥-0.68 (40 mg once daily): 39.7%; % patients at week 12, MCID: ≥-0.22 (40 mg once daily): 67.9%; % patients at week 12, Normative (≤0.25) (40 mg once daily): 18.2%; % patients at week 12, Remission (≤0.5) (40 mg once daily): 28.8%
